# From PubChem BioAssay AID485294 (National Center for Advancing Translational Sciences (NCATS), 2010)
# In all, about 370,000 compounds went through this assay and about 150 (0.041%) were called active. Inconclusive means that the source gave no clear call. Such entries were picked first, then a sample of the others. The call rests on the fitted dose curve; in most records, active means well fitted inhibition curve with a large enough effect; inconclusive means small, poorly fitted or top-dose-only effect; inactive means flat fitted curve, though single readings scatter. No potency is given beside an inconclusive call; the fits are too rough.
# Target: Beta-lactamase (Escherichia coli (strain K12)) (UniProt P00811)
# Sequence of UniProt P00811 (P00811 whole entry, looked up): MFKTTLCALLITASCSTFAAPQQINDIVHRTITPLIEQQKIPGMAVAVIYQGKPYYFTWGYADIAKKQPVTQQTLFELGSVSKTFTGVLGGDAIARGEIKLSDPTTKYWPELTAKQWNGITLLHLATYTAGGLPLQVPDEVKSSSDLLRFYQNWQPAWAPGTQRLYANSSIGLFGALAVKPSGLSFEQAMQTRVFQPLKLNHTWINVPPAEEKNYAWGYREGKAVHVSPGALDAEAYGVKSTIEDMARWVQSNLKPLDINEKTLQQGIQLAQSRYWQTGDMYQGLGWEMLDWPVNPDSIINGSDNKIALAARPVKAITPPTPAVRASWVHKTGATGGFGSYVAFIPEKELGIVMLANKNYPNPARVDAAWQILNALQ
# Assay: qHTS Inhibitors of AmpC Beta-Lactamase (assay with detergent); further: nearly all actives have a fitted effect of over 25% in size
# Settings: AmpC hydrolysis of nitrocefin, absorbance 480 nm, 0.01% Triton; series mostly up to 114 µM
# Procedure, shortened: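 AmpC (5.3 nM in the dispensed reagent) in 20 mM phosphate pH 7.0 with 0.01% (detergent screen) or 0.0001% Triton X-100 was preincubated with compounds for 15 min at room temperature. Nitrocefin was then added from an 800 uM solution, and hydrolysis was followed at 480 nm.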
# Potency means the concentration at half of the fitted maximal effect; tags describe the fitted curve by direction and shape.
row,Compound,Potency
1,Cc1nn(-c2cccc(Cl)c2)c2nc(-c3cccnc3)cc(C(F)(F)F)c12,inactive
2,Cc1nc2ccccc2n1CCc1nc2c3ccccc3nc(=S)n2[nH]1,"inconclusive [inhibitor, full curve, poor fit]"
3,COC(=O)C1=C(O)/C(=C\c2ccc(CNC(=O)C(=O)Nc3ccc(C)c(C)c3)o2)N=C1C,"inconclusive [inhibitor, full curve, poor fit]"
4,CCCCn1c(SCC(=O)N2CCOCC2)nnc1-c1ccoc1C,"inconclusive [inhibitor, partial curve, poor fit]"
5,CC(C)NC(=O)c1c(CSc2ccc(Cl)cc2)noc1C(=O)NCc1ccccc1,"inconclusive [inhibitor, single point]"
6,COc1ccccc1NC(=O)Nn1cnnc1,"inconclusive [inhibitor, partial curve, poor fit]"
7,O=C(O)c1ccc(N2C(=O)/C(=C/c3ccc(-c4ccc([N+](=O)[O-])cc4)o3)C=C2c2ccccc2)cc1,"inconclusive [inhibitor, single point]"
8,Cc1ccc(-n2c(Cc3ccccc3)n[nH]c2=S)c(C)c1,"inconclusive [inhibitor, full curve, poor fit]"
9,CC(O)(CS(=O)(=O)c1cccc(C(F)(F)F)c1)C(=O)Nc1cccc(C(F)(F)F)c1 (configuration not stated),"inconclusive [inhibitor, full curve, poor fit]"
10,CCC1(C)Cc2nc3[nH]c(=S)n(-c4ccc(C)cc4)c(=O)c3cc2CO1 (configuration not stated),inactive
11,CN1CCc2c(sc3c2C(=O)NC(/C=C\c2ccccc2)N3)C1 (configuration not stated),inactive
12,Nc1nc2n(n1)C(c1cccc(Cl)c1)CC(c1ccc(F)cc1)N2 (configuration not stated),"inconclusive [inhibitor, full curve, poor fit]"
13,COc1ccc(CCNC(=O)CC2(CC3=NS(=O)(=O)c4ccccc4N3)CCCC2)cc1OC,"inconclusive [inhibitor, full curve, poor fit]"
14,Cc1ncc([N+](=O)[O-])n1CCOC(=O)c1cc(Cl)cc(Cl)c1N,"inconclusive [inhibitor, partial curve, poor fit]"
15,O=S1(=O)N=C(N2CCN(c3ccc(F)cc3)CC2)c2ccccc21,"inconclusive [inhibitor, full curve, poor fit]"
16,CCOc1ccc(NC(=O)c2cnn3c2NC(C)=C(C(=O)Nc2ccc(Cl)cc2)C3c2ccc(OC)c(OC)c2)cc1 (configuration not stated),inactive
17,Cc1cc(C)c(C(=O)CSc2nc3ccccc3c(=O)[nH]2)cc1C,"inconclusive [inhibitor, full curve]"
